# According to PubChem BioAssay AID624417 (National Center for Advancing Translational Sciences (NCATS), 2012):
# Several values for one entry are separate records, joined by “and”; a condition that tells them apart may be missing. Identical values can stand only once. In all, about 410,000 compounds went through this assay and about 6,400 (1.6%) were called active. The shares of active, inactive and inconclusive entries below differ from those in the screen. The call rests on the fitted dose curve; in most records, active means well fitted inhibition curve with a large enough effect; inconclusive means small, poorly fitted or top-dose-only effect; inactive means no such curve, though single readings can be large or run the other way. Potencies beside an inconclusive call are fits to weak or partial responses and may not hold up.
# Target: Glucagon-like peptide 1 receptor (Homo sapiens) (UniProt P43220)
# Chain of UniProt P43220 (P43220 whole entry, looked up): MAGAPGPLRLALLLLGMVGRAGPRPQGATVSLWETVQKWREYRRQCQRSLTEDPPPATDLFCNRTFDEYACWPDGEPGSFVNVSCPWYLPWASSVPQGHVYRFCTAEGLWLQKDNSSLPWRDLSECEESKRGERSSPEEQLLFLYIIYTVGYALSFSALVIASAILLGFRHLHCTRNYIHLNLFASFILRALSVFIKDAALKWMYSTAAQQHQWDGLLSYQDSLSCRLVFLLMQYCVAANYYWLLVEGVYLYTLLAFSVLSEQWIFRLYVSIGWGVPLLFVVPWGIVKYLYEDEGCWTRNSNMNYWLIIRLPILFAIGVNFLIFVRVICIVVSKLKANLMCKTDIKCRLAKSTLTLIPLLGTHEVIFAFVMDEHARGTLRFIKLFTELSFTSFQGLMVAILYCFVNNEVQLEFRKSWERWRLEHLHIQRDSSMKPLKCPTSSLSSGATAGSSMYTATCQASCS
# Test: qHTS of GLP-1 Receptor Inverse Agonists (Inhibition Mode); further: nearly all actives have a fitted effect of over 55% in size
# Settings: HEK293 GLP-1R CRE-luciferase, luminescence, 24 h, GLP-1R form is constitutively active; activity change, negative = inhibition: at 38.3 µM (top of the series) unless noted
# In short: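 Assay principle: reduced luminescence from a cAMP-responsive reporter in HEK293 cells co-expressing a constitutively active GLP-1R. Conditions: 24 hr compound incubation, 37 deg C, 5% CO2.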
# On the % scale 0 is the no-effect control and ±100 the full control effect; potency means the concentration at half of the fitted maximal effect; tags describe the fitted curve by direction and shape.
Compound,Potency,"activity change, negative = inhibition"
Cc1ccc(NC(/C=C/N(C)C)=C/C(=O)C(F)(F)F)c(C)c1,"inconclusive: 11.2 µM [inhibitor, partial curve]",–
CCOC(=O)c1c(C)sc2c1N(C(=O)CN(CC)CC)c1cc(Cl)ccc1S2,"inconclusive: 12.6 µM [inhibitor, partial curve, poor fit]",–
COc1ccc(-c2csc(C(O)c3cccc(Cl)c3)n2)cn1 (centres undefined),"inconclusive: 10 µM [inhibitor, single point]",–
O=C(Nc1ccc(Cl)c(Cl)c1)Nc1ccccc1C(=O)O,active: 5.62 µM,–
O=[N+]([O-])c1ccc(/C=N/N=C/c2ccc([N+](=O)[O-])o2)o1,–,inconclusive: -74.6% [inhibitor]
CC(CCc1ccccc1)NCC(O)COc1ccccc1 (centres undefined),"inconclusive: 28.2 µM [inhibitor, single point]",–
Cc1cc(C)c(C)c(OCCNCc2ccccc2)c1,"inconclusive: 11.2 µM [inhibitor, single point]",–
CCOC(=O)c1c(NC(=O)CN(CC)CC)sc2c1CCC2,"inconclusive: 28.2 µM [inhibitor, single point]",–
CCOC(=O)N1CCN(c2ccc(S(=O)(=O)N3CCOCC3)cn2)CC1,–,inactive: 14.7%
Cc1nc(Cl)sc1C(=O)Nc1ccc(C(F)(F)F)cc1,"inconclusive: 28.2 µM [inhibitor, single point]",–
CCCCCCN1CC(=O)N2Cc3[nH]c4ccccc4c3C[C@H]2C1=O,"inconclusive: 2.24 µM [inhibitor, full curve]",–
COc1ccc(CN(C2CC2)S(=O)(=O)c2ccccc2Br)cc1,"inconclusive: 11.2 µM [inhibitor, partial curve, poor fit]",–
c1ccc(CSc2ccc(-c3ccccn3)nn2)nc1,"inconclusive: 28.2 µM [inhibitor, single point]",–
Cn1c(=O)c2c(nc(N3CCNCC3)n2Cc2cccc3ccccc23)n(C)c1=O,–,inactive: -27.3%
Cc1ccc(C)c(N2CCN(C(=O)CCS(=O)(=O)c3ccc4c(c3)CCN4C(=O)C3CC3)CC2)c1,"inconclusive: 28.2 µM [inhibitor, single point]",–
O=C(O)c1cccc(NC(=S)NC(=O)c2ccncc2)c1,"inconclusive: 11.2 µM [inhibitor, single point]",–
CC(NCC(=O)Nc1ccccc1C(=O)NC1CC1)c1ccc(Cl)cc1 (centres undefined),"inconclusive: 14.1 µM [inhibitor, single point]",–
CNc1nn(-c2cccc(Cl)c2)nc1N,"inconclusive: 28.2 µM [inhibitor, single point]",–
CCOc1ccc(C(=O)Nc2cccc(-c3nc4cccnc4s3)c2C)cc1OCC,–,inactive: 1.61%
O=C1CS/C(=C\[N+](=O)[O-])N1c1ccccc1,–,inactive: -20.5%
Cc1ccc(O)c(/C=N/NC(=O)Cc2ccc(Cl)cc2)c1,"inconclusive: 3.16 µM [inhibitor, full curve]",–
O=C(CC12CC3CC(CC(C3)C1)C2)NCC(c1ccc(F)cc1)N1CCOCC1 (centres undefined),"inconclusive: 28.2 µM [inhibitor, single point]",–

Compound,Potency,"activity change, negative = inhibition"
O=C(c1cc(COc2cccc(C(F)(F)F)c2)on1)N1CCc2ccccc2C1,"inconclusive: 28.2 µM [inhibitor, single point]",–
Cn1nc(C(F)(F)F)c(-c2cccc(C(F)(F)F)c2)c1NC(=O)Nc1ccc(F)cc1,"inconclusive: 2.82 µM [inhibitor, full curve, poor fit]",–
Cc1ccccc1-n1ncc(C(C)NC(=O)c2ccco2)c1C (centres undefined),–,inactive: 16.3%
CCCOc1ccccc1N1C(=O)CC(N(O)c2ccccc2)C1=O (centres undefined),–,inactive: -14.1%
O=C(Nc1nc(-c2ccccn2)cs1)c1cc(Cl)ccc1[N+](=O)[O-],"inconclusive: 2.82 µM [inhibitor, full curve, poor fit]",–
CC(C)(C)C(=O)Nc1cccc(-c2cc(-c3c(Cl)cccc3Cl)no2)c1,"inconclusive: 8.91 µM [inhibitor, partial curve, poor fit]",–
CC(C)c1cc(C(=O)OCC(=O)NC(=O)NCc2ccco2)c(O)c(C(C)C)c1,active: 3.55 µM,–
CSc1nc(N(C)NC(=O)c2ccc(F)cc2)c2ccccc2n1,"inconclusive: 0.794 µM [inhibitor, full curve, poor fit]",–
CCC(CO)(CO)N(CC(=O)Nc1ccc(OC)cc1)CC(=O)Nc1ccc(OC)cc1,"inconclusive: 12.6 µM [inhibitor, single point]",–
O=C(Nc1ccc(F)cc1F)c1sccc1SCc1cccc(C(F)(F)F)c1,active: 10 µM,–
CN(C)c1ccc(C(CNS(=O)(=O)c2ccc([N+](=O)[O-])cc2)N2CCCC2)cc1 (centres undefined),"inconclusive: 11.2 µM [inhibitor, partial curve, poor fit]",–
Cc1nc(N2CCN(Cc3ccc4c(c3)OCO4)CC2)c2cc(-c3ccccc3)sc2n1,"inconclusive: 0.316 µM [inhibitor, full curve, poor fit]",–
CCOc1ccccc1N1CCN(S(=O)(=O)c2ccc(F)c(F)c2)CC1,"inconclusive: 22.4 µM [inhibitor, single point]",–
Fc1ccc(N2CCN(c3nc(CN4CCOCC4)nc4scc(-c5ccccc5)c34)CC2)cc1,"inconclusive: 28.2 µM [inhibitor, single point]",–
CCc1cccc(OCCOCCN2CCCC2)c1,–,inactive: -18.1%
Cc1ccc(Cl)cc1NC(=O)c1cc(S(=O)(=O)N2CCCCCC2)cn1C,–,inactive: 10.5%
CCc1ccc2c(c1)NC(c1cccnc1)=NC(c1ccc(C(C)(C)C)cc1)=N2,"inconclusive: 22.4 µM [inhibitor, single point]",–
O=C1CCCCCC1C1(O)C(=O)Nc2ccccc21 (centres undefined),–,inactive: 0.374%
COc1ccc(/C=C/C(=O)NCC(=O)N/N=C(/CCC(=O)O)c2ccccc2)cc1,"inconclusive: 10 µM [inhibitor, partial curve, poor fit]",–
Cc1nc2ccc(NS(=O)(=O)c3ccc(Br)cc3)cc2s1,"inconclusive: 28.2 µM [inhibitor, single point]",–
O=C(Cn1c2ccccc2c(=O)c2ccccc21)Nc1ccccc1F,–,inactive: 14%
CSc1ccc(CCNC(=O)c2ccc(CS(=O)Cc3ccc(Cl)cc3)o2)cc1 (centres undefined),"inconclusive: 10 µM [inhibitor, single point] and inconclusive: 14.1 µM [inhibitor, single point]",–
